The values below come from PMC4336329 (PLoS ONE, 2015).

About 2,200 (0.71%) of roughly 310,000 compounds showed an effect of 50% or more. Effects have a minus sign here. The list shows a part of the results.

Sequence of human ether-à-go-go-related gene (hERG) potassium channel (Q12809 whole entry, looked up): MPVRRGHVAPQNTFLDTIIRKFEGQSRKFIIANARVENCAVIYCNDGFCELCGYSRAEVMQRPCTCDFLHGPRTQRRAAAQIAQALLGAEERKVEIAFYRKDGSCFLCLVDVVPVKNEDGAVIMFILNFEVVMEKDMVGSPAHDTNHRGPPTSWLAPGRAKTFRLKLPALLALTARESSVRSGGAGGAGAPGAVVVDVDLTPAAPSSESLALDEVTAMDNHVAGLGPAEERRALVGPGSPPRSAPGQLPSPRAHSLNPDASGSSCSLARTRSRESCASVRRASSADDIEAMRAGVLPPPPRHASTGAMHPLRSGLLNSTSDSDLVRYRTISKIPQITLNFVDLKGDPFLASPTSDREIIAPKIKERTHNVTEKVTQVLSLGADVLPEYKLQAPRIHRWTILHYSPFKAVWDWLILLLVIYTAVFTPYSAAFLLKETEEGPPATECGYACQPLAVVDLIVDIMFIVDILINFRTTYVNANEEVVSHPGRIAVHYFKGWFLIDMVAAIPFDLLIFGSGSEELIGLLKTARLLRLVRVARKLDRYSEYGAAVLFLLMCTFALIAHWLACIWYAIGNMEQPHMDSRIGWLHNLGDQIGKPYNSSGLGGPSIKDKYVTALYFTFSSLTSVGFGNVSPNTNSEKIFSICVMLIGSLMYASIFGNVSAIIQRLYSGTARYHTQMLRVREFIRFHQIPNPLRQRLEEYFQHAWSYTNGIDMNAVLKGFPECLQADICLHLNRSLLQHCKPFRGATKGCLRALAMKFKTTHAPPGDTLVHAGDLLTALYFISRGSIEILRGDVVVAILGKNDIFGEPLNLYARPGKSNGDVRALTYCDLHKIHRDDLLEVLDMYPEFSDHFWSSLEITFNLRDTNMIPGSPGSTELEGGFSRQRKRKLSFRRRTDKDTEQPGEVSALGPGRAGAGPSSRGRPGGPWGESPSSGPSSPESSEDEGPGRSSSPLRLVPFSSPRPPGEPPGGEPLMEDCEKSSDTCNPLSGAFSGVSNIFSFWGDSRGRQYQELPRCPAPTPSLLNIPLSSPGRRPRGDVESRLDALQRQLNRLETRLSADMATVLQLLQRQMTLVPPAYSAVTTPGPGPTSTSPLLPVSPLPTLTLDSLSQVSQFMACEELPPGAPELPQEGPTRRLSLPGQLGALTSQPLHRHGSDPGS

This test concerns the target human ether-à-go-go-related gene (hERG) potassium channel (human, UniProt Q12809). The test can be described thus: primary screen, population patch clamp on CHO cells stably expressing hERG.
For `O=C(NCc1ccccc1)C1CCCN1S(=O)(=O)c1ccc(Cl)cc1` (stereo not shown), the “hERG current change (%, negative = inhibition) at 1uM” value was 12.3%.
Then `C(=N\Nc1nc2ccccc2[nH]1)/c1ccccc1`, with 5.68%; and `CCn1c(=O)c2c(nc(SCC(=O)NCC3CCCO3)n2C)n(C)c1=O` (stereo not shown), with 7.1%.
Take `COC(=O)c1ccc(N/C=C/C(=O)c2ccc(OC)c(OC)c2)cc1`: the “hERG current change (%, negative = inhibition) at 1uM” value is -1.27%.
The result for `Cc1nonc1CC(=O)NC1CCCc2c1cnn2-c1ccc(F)cc1F` (stereo not shown) reads 13.9%; that for `Cc1nn(CC(=O)NC2CCC(C)CC2)c(=O)c(C#N)c1C` (stereo not shown), -2.51%.
`Cc1ccccc1OCc1nnc(SCC(=O)N2c3ccccc3Sc3ccc(Cl)cc32)o1`: the “hERG current change (%, negative = inhibition) at 1uM” value is recorded as 10.3%.
Regarding `CN(CCC1CCCCO1)C(=O)CCc1nnc(CCc2ccccc2)o1` (stereo not shown), the “hERG current change (%, negative = inhibition) at 1uM” value is 12%.
For `CC#CC(=O)NC1CCCN(C2Cc3ccccc3C2)C1` (stereo not shown), the “hERG current change (%, negative = inhibition) at 1uM” value came to 0.543%.
`CC(C)Cn1c(O)c(/C=C2\C=NN=C2c2ccccc2)sc1=S`: the “hERG current change (%, negative = inhibition) at 1uM” value was determined as 17.3%.
Regarding `CCOc1ccc(N(C(=O)CNC(=O)c2ccco2)C(C(=O)NC2CCCC2)c2ccncc2)cc1` (stereo not shown), the “hERG current change (%, negative = inhibition) at 1uM” value worked out at 6.96%.
`CC(C)[C@]12CC(=O)[C@H](C)[C@H]1C2`: the “hERG current change (%, negative = inhibition) at 1uM” value stood at 15.8%.
Take `O=C(NCc1ccc2c(c1)OCO2)Nc1ccc(Cl)cc1`: the “hERG current change (%, negative = inhibition) at 1uM” value is reported as 9.07%.
With `O=C(Nc1cccc(Br)c1)c1cc2ccccc2o1`, the “hERG current change (%, negative = inhibition) at 1uM” value amounted to 1.46%.
Then `COc1ccccc1NC(=O)c1c(N=Cc2ccccc2O)cnn1C`, with 11.9%.
Consider `Cn1ccc(NC(=O)c2ccc(Cl)cc2)n1`, for which the “hERG current change (%, negative = inhibition) at 1uM” value came to 11%.
The result for `NC(=O)C(c1ccc(F)cc1)c1ccc(C(=O)c2ccccc2)cc1` (stereo not shown) reads 6.27%.
`OC(CN1CCN(Cc2ccccc2)CC1)c1ccc(Br)cc1` (stereo not shown): the “hERG current change (%, negative = inhibition) at 1uM” value is on record as -46.1%.
For the compound `CCCC(C(=O)NCc1ccco1)N(Cc1ccco1)C(=O)CNS(=O)(=O)c1ccccc1` (stereo not shown), the “hERG current change (%, negative = inhibition) at 1uM” value is on record as 14.4%.
Turning to `O=C(O)c1ccc2c(c1)C(=O)N(CCc1c[nH]c3ccccc13)C2=O`, the “hERG current change (%, negative = inhibition) at 1uM” value is 11.8%.
On to `Nc1c(C(=O)N2CCCCCC2)oc2ccccc12`, for which the “hERG current change (%, negative = inhibition) at 1uM” value came out at 6.62%.
With `N#Cc1cnn(-c2cccc(Cl)c2)c1N`, the “hERG current change (%, negative = inhibition) at 1uM” value is listed as 8.85%.
Then `Cn1c(N)c(C(=O)COC(=O)COc2ccc(C#N)cc2)c(=O)n(C)c1=O`, with -7.25%.
For `CCOC(=O)C1CCCN(C(=O)c2cc(COc3ccc(C)nc3)on2)C1` (stereo not shown), the “hERG current change (%, negative = inhibition) at 1uM” value came to 6.13%.
Turning to `CC1(C)COCN1C(=O)c1ccc(Cl)c(Cl)c1`, the “hERG current change (%, negative = inhibition) at 1uM” value is on record as 15.9%.
In the case of `CC[C@H](C)C(C(=O)N1CCN(C(=O)OC(C)(C)C)CC1)n1cc(C(CO)NC(=O)OC(C)(C)C)nn1` (stereo partly shown), the “hERG current change (%, negative = inhibition) at 1uM” value was found to be 13.3%.
For `CCC(C)(C)NC(=O)CN(Cc1ccc2c(c1)OCO2)C(=O)CCC(=O)Nc1cc(C)ccn1`, the “hERG current change (%, negative = inhibition) at 1uM” value amounted to 0.971%.
For `O=S(=O)(Cc1ccccc1)N1CCC(N2CCN(c3ccccc3)CC2)CC1`, the “hERG current change (%, negative = inhibition) at 1uM” value is 2.34%.
`CC(=O)c1c(C)[nH]c(C(=O)Nc2ccc(Cl)cc2)c1C`: the “hERG current change (%, negative = inhibition) at 1uM” value was found to be 7.8%.
`CCOc1ccc(NC(=O)C2C3C=CC4(CN(C(C(=O)OC)C(C)C)C(=O)C24)O3)cc1` (stereo not shown): the “hERG current change (%, negative = inhibition) at 1uM” value is on record as 7.86%.
With `c1coc(-c2nc3c4c5c(sc4ncn3n2)CCCC5)c1`, the “hERG current change (%, negative = inhibition) at 1uM” value came out at 3.82%.
The result for `O=C(COc1ccc(Cl)cc1)NCCS(=O)(=O)N1CCN(c2ccc(F)cc2)CC1` reads 10.4%; that for `O=C(O)/C(=C\c1cccs1)c1ccc(F)cc1`, 9.33%; that for `OCCc1c[nH]c2cc(F)ccc12`, 10.4%.
The result for `CCc1ccc(C(=O)NNc2ccccc2F)cc1` reads -3.36%; that for `CCCOC(=O)CN1C(=O)c2ccc(C(=O)OCCC)cc2C1=O`, 8.09%.
Consider `COc1ccccc1CNC(=O)Cn1c(=O)oc2cc(Cl)ccc21`, for which the “hERG current change (%, negative = inhibition) at 1uM” value worked out at 2.65%.
`CCc1ccc(NC(=O)NCC2CCN(c3ccc(OC)cc3)C2)cc1` (stereo not shown): the “hERG current change (%, negative = inhibition) at 1uM” value is on record as 0.281%.
With `C(=C\c1ccccc1)/CN1CCN(Cc2nc(Cc3ccccc3)no2)CC1`, the “hERG current change (%, negative = inhibition) at 1uM” value is reported as -19.6%.
Consider `CCC(C)(C)n1nnnc1C(c1cc2ccc(OC)cc2[nH]c1=O)N1CCN(C2CCCCC2)CC1` (stereo not shown), for which the “hERG current change (%, negative = inhibition) at 1uM” value was -31%.
Regarding `Nc1nc(N2CCCCC2)c(C=O)c(N2CCCCC2)n1`, the “hERG current change (%, negative = inhibition) at 1uM” value was 9.77%.
The result for `COC(=O)C(NC(=O)c1ccc(F)cc1)(Nc1ncc(S(=O)(=O)c2ccc([N+](=O)[O-])cc2)s1)C(F)(F)F` (stereo not shown) reads 2.74%.
The result for `Cc1ccc(NC(=O)NCc2cccnc2)cc1C` reads 12.9%; that for `CC(=O)Nc1c(I)c(C(=O)N[C@H]2C(O)O[C@H](CO)[C@@H](O)[C@@H]2O)c(I)c(N(C)C(C)=O)c1I` (stereo partly shown), 0.626%; that for `CN(c1ccccc1C(=O)N1CCCC1)S(C)(=O)=O`, -6.33%.
As to `CC(=O)Nc1cccc(NC(=O)COc2ccccc2C)c1`, the “hERG current change (%, negative = inhibition) at 1uM” value was determined as 13.7%.
For `CCN(CC)c1ccc(NC(=O)c2ccco2)cc1`, the “hERG current change (%, negative = inhibition) at 1uM” value was -9.85%.
With `C/C(=N\NC(=O)c1cc(C)[nH]n1)C(C)(C)C`, the “hERG current change (%, negative = inhibition) at 1uM” value was 10.1%.
`O=[N+]([O-])c1ccc(NC2CCCC2)cc1`: the “hERG current change (%, negative = inhibition) at 1uM” value stood at 5.47%.
Then `CCCCn1c(SCC(=O)NCc2ccco2)nc2cc(S(N)(=O)=O)ccc21`, with 12.4%; and `COc1ccc(C(=O)NCc2nnc(SCC(=O)N3CCc4ccccc43)n2C2CCCCC2)cc1`, with 14%.
`COC(=O)c1ccc(Oc2nc(NC(C)C)nc(N(C)C)n2)cc1`: the “hERG current change (%, negative = inhibition) at 1uM” value is 11.3%.
On to `CCCOc1ccc(CCCN=C(N)N)cc1Cl.O=S(=O)(O)O`, for which the “hERG current change (%, negative = inhibition) at 1uM” value worked out at 15.8%.
As for `Cc1ccc(/C=C/C2=NN(Cc3ccc(Cl)c(Cl)c3)C(=O)CC2)cc1`, the “hERG current change (%, negative = inhibition) at 1uM” value is 8.6%.
With `COc1ccc(OC)c(NC(=O)c2cc3c(=O)n4ccccc4nc3n2C)c1`, the “hERG current change (%, negative = inhibition) at 1uM” value is reported as 1.61%.
As to `COc1ccc(N=CC=C2OC(C)(C)C(C)(C)O2)cc1OC.Cl`, the “hERG current change (%, negative = inhibition) at 1uM” value was 7.43%.
Consider `NNC(=O)c1ccc(CSc2n[nH]c(=O)[nH]c2=O)cc1`, for which the “hERG current change (%, negative = inhibition) at 1uM” value worked out at 12%.
As for `O=C(CSc1ncn[nH]1)Nc1cccc(S(=O)(=O)N2CCCCCC2)c1`, the “hERG current change (%, negative = inhibition) at 1uM” value is reported as -5.6%.
